About 200 (0.47%) of roughly 43,000 compounds were called active. About 12% were inconclusive and are not listed. Calls follow the shape of the dose curve; as a rule, active = well fitted cell-killing curve with a large enough effect; inconclusive = small, poorly fitted or top-dose-only effect, or effect the other way; inactive = flat fitted curve, though single readings scatter. The list shows a part of the results.
Test: Cell viability qHTS assay in S16 Pmp22-F2sN cells; also: nearly all actives have a fitted effect of over 65% in size
Details: S16 Pmp22-F2sN Schwann cells (luciferase reporters placed in the Pmp22 gene) viability, CellTiter-Glo, 24 h; series mostly up to 57.5 µM; activity change, negative = cytotoxicity: at the top concentration
Summary of the method: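 Luminescence from CellTiter-Glo, read by CCD camera after a 15 min room-temperature incubation, served as the viability signal. Reporter Schwann cells (S16 Pmp22-F2sN) had been treated with pin-transferred compounds for 24 h at 37C.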
% is scaled to controls: 0 for no effect and ±100 for the full control effect.

| SMILES | activity change, negative = cytotoxicity |
| --- | --- |
| Cc1ccc(C)n1-c1nnc(N2CCCC(C(=O)NCc3ccc(Cl)cc3)C2)s1 (stereo not given) | inactive: -13.5% |
| Cc1ccc(CN2CCc3nc(N4CCN(c5ncccn5)CC4)ncc3C2)cc1 | inactive: -19.8% |
| CCCc1nn2c(=O)cc(COC(=O)c3cccc(NC(=O)COc4ccc(F)cc4)c3)nc2s1 | inactive: 1.2% |
| CCOC(=O)c1scc(-c2ccccc2)c1S(=O)(=O)Nc1ccccc1F | inactive: 15.3% |
| CC(C)c1ccc(C2N3CC4(C)CN2CC(c2ccccc2)(C3)C4=O)cc1 (stereo not given) | inactive: -3.5% |
| Cc1ccccc1NC(=O)c1ccc(F)c(S(=O)(=O)N(C)Cc2ccccc2)c1 | inactive: 1.39% |
| Cc1nc(-c2ccc(Cl)cc2)sc1CCNC(=O)C(=O)Nc1ccc(F)cc1F | inactive: 10.5% |
| Cc1cc(C)c(Cn2c3ccccc3c3cnn(CC(=O)NC4CCC(C)CC4)c(=O)c32)c(C)c1 (stereo not given) | inactive: 3.45% |
| O=C(O)c1cc(NC2(c3ccccc3)C(=O)c3ccccc3C2=O)ccc1Cl | inactive: 10.1% |
| O=C(Cn1c(=O)oc2cc(S(=O)(=O)N3CCCCC3)ccc21)Nc1cccc(Cl)c1 | inactive: 15.4% |
| CCCCN1C(=O)c2[nH]nc(-c3ccccc3O)c2C1c1cccc(OCc2ccccc2)c1 (stereo not given) | inactive: 1.92% |
| Cc1ccc2[nH]c(=O)c3cc(C(=O)N4CCN(c5ccccc5)CC4)sc3c2c1 | inactive: -0.272% |
| Cc1cccc(C(=O)Nc2sc3c(c2C(=O)NCc2ccco2)CCCC3)c1 | inactive: -0.0051% |
| COc1cccc(NC(=O)NCc2ccc3c(c2)CCN3C(=O)c2ccccc2)c1 | inactive: 3.5% |
| CCN(CC)S(=O)(=O)c1ccc2c(c1)N(CC(=O)NCCCN1CCN(c3ccccc3F)CC1)C(=O)CO2 | inactive: -17.6% |
| COC(=O)c1sccc1S(=O)(=O)N1CCN(c2ccccc2)CC1 | inactive: 14% |
| CCOc1ccc(CCNC(=O)CCc2c(C)nc3c4c(C)cc(C)nc4nn3c2C)cc1 | inactive: 1.31% |
| COc1ccc(Cl)cc1NC(=O)CSc1nnc(C)n2c1cc1occc12 | inactive: -6.78% |
| Cc1cc(NC(=O)C2CCCN(S(=O)(=O)c3ccc(Br)s3)C2)ccc1Br (stereo not given) | inactive: -7.67% |
| COc1ccc(CC(=O)Nc2ccc(-c3nc4ccccc4s3)cc2Cl)cc1 | inactive: 1.45% |
| Cc1ccc(CCNC(=O)CN2C(=O)COc3ccc(S(=O)(=O)N4CCC(C)CC4)cc32)cc1 | inactive: -2.29% |
| CCN1CCN(C(c2cccc(Cl)c2)c2c(O)cc(C)n(CCOC)c2=O)CC1 (stereo not given) | inactive: 4.23% |
| Cc1cc(OCC(=O)NCC2(N(C)C)CCCCC2)cc(C)c1Cl | inactive: 1.53% |
| COc1cccc(C2=NS(=O)(=O)N(C)C(C(=O)Nc3cccc(O)c3)=C2)c1 | inactive: -1.45% |

| SMILES | activity change, negative = cytotoxicity |
| --- | --- |
| CCn1cc(C(=O)NCCCN(CC(C)C)CC(C)C)c(=O)c2cc(S(=O)(=O)N3CCc4ccccc4C3)ccc21 | inactive: -5.58% |
| Cc1ccc(-c2nnc(SCC(=O)NCCC(C)C)nc2-c2ccc(C)cc2)cc1 | inactive: -19% |
| CCCCN1C(=O)C(O)(c2c(C)[nH]c3ccccc23)c2cc(Br)ccc21 (stereo not given) | inactive: -1.74% |
| Cc1cc2nn(-c3ccc(F)cc3)nc2cc1NC(=O)c1cc(Cl)ccc1Cl | inactive: -3.97% |
| CCCN(CCC)c1nn2c(=O)c(C(=O)NCc3cccc(OC)c3)cnc2s1 | inactive: 7.45% |
| O=C(NCc1ccccc1)C(=O)NCC(c1ccco1)S(=O)(=O)c1ccccc1 (stereo not given) | inactive: 10.7% |
| COc1ccc(N2CCN(C(CNC(=O)C(=O)NCc3ccc(F)cc3)c3cccnc3)CC2)cc1 (stereo not given) | inactive: -19.2% |
| CCc1ccc(NC(=O)N(Cc2c[nH]c3ccccc23)C2CCCCCC2)cc1 | inactive: -24.2% |
| Cc1sc(-c2cc3ccccc3oc2=O)nc1-c1ccc(Cl)cc1 | inactive: -25.9% |
| COC(=O)c1cc(S(=O)(=O)N2CCN(c3ccc(C)cc3C)CC2)cn1C | inactive: 15.2% |
| Cc1ccc(-c2cc(C(=O)Oc3ccccc3)c3cccc(C)c3n2)cc1 | inactive: 4.84% |
| COc1ccc(NC(=O)c2sc3nc[nH]c(=O)c3c2C)cc1 | inactive: 1.8% |
| O=C1CN(C(=O)C2CCCCC2)C(c2ccccc2)c2cc(F)ccc2N1 (stereo not given) | inactive: -16.4% |
| CCOc1ccc(C2c3c(oc4ccc(C)cc4c3=O)C(=O)N2c2nc(C)c(C)s2)cc1OC (stereo not given) | inactive: -1.54% |
| COc1ccc(-c2noc(-c3ccc(N4CCCCC4)c([N+](=O)[O-])c3)n2)cc1 | inactive: 5.09% |
| CCCCCCOc1ccc(-c2nc3ccc(Br)cc3c(=O)o2)cc1 | inactive: 17% |
| O=C1CC(c2ccccc2)Cc2[nH]c(=O)c(-c3nc(-c4ccc(F)cc4)cs3)cc21 (stereo not given) | inactive: -10.6% |
| CC(C)Oc1ccc(CNC(=O)C2COc3ccccc3C2)cc1 (stereo not given) | inactive: 1.7% |
| O=C(CN1C(=O)COc2ccc(S(=O)(=O)N3CCCC3)cc21)N1CCN(c2ccccc2F)CC1 | inactive: -13.3% |
| Cc1ccccc1-c1nc(CS(=O)CC(=O)NCCc2ccc(Cl)cc2)c(C)o1 (stereo not given) | inactive: -0.739% |
| Cc1ccc(C)c(CSc2c(C(C)C)cnc3c2c(=O)n(C)c(=O)n3C)c1 | inactive: -1.72% |
| CN1CCN(C(=O)c2cnn(-c3cccc(F)c3)c2C2CCN(C(=O)OC(C)(C)C)CC2)CC1 | inactive: 15.3% |
| CC(C)c1ccc(CNc2nc(-c3ccco3)nn2S(=O)(=O)c2ccccc2)cc1 | inactive: -9.18% |
| Cc1csc2nc(COc3ccc(NC(=O)COc4ccc(F)cc4)cc3)cc(=O)n12 | inactive: 10.2% |

| SMILES | activity change, negative = cytotoxicity |
| --- | --- |
| CCOc1ccc(/C=C/c2nc(C#N)c(N(C)C)o2)cc1 | inactive: -0.199% |
| COc1ccc(N2CCN(C(CNC(=O)c3ccc(C)cc3)c3ccc4c(c3)OCO4)CC2)cc1 (stereo not given) | inactive: -3.13% |
| CCOC(=O)c1cc(-c2ccc(C)cc2)n(CCC(=O)NCc2ccccc2)c1C | inactive: 10.2% |
| Cc1ccc(-c2nc3scc(CCNS(=O)(=O)c4ccc(C)c(C)c4)n3n2)cc1 | inactive: 7.15% |
| Cc1ccc(-c2noc(-c3cccnc3NCc3ccc(Cl)cc3)n2)cc1 | inactive: 2.89% |
| Cc1cccc(OCC(=O)Nc2ccc(C(=O)OCc3cc(=O)n4nc(C5CC5)sc4n3)cc2)c1 | inactive: 10.8% |
| COC(=O)c1ccc(NC(=O)CSc2ccc(-c3cccs3)nn2)cc1 | inactive: -7.74% |
| C#CCOc1ccc(C2C(C(=O)OC)=C(C)NC3=C2C(=O)c2ccccc23)cc1OCC (stereo not given) | inactive: -4.03% |
| CCOc1ccc(Sc2cc(C(=O)NCCCOC)c3ccccc3n2)cc1 | inactive: -4.17% |
| CCc1ccc(NC(=O)C(Cc2ccccc2)NS(=O)(=O)c2ccc3c(c2)CCN3C(C)=O)cc1 (stereo not given) | inactive: -12.7% |
| Cc1cc(C)c(NC(=O)c2cc(CN3CCOCC3)on2)c(C)c1 | inactive: -4.49% |
| COc1ccc2cc(S(=O)(=O)c3ccccc3F)c(=O)oc2c1 | inactive: 1.15% |
| Cc1cccc(C)c1NC(=O)C1CCCN(S(=O)(=O)c2c(C)noc2/C=C/N(C)C)C1 (stereo not given) | inactive: -0.28% |
| COc1ccccc1CNC(=O)c1ccc(NC(=O)N2CC(C)Sc3ccccc32)cc1 (stereo not given) | inactive: 8.89% |
| CCOc1ccc(NC(=O)CSc2nnc(CC)c(CC)n2)cc1 | inactive: -3.62% |
| O=C(Nc1nnc(S(=O)(=O)N2CCCCC2)s1)c1ccc(Cl)cc1 | inactive: 1.36% |
| CC(=O)Nc1ccc(NS(=O)(=O)c2ccc3c(c2)CCCN3C(C)=O)cc1 | inactive: 3.14% |
| CCc1ccc(-c2[nH]c3c(c2-c2c(-n4cccc4)n(C)c(=O)[nH]c2=O)c(=O)[nH]c(=O)n3C)cc1 | inactive: 1.18% |
| COc1ccc(-n2ncc(C(=O)Nc3ccc(C)cc3Cl)c2C2CCN(C(=O)OC(C)(C)C)CC2)cc1 | inactive: -28.8% |
| COc1ccc(N2CC(NC(=O)c3cccs3)CC2=O)cc1OC (stereo not given) | inactive: 9.54% |
| O=C(Nc1ccc(F)cc1)c1ccc(-n2cnnc2)cc1 | inactive: 20% |
| CC1(C)CC(=O)c2cc(C(=O)Nc3ccc(Br)cc3)c(=O)n(-c3ccc(Cl)cc3)c2C1 | inactive: 2.09% |
| COCCCn1c(=N)c(S(=O)(=O)c2ccccc2)cc2c(=O)n3cccc(C)c3nc21 | inactive: 21.4% |
| Cc1ccc(C2c3cccn3CCN2S(=O)(=O)c2ccc([N+](=O)[O-])cc2)cc1 (stereo not given) | inactive: -21.9% |

| SMILES | activity change, negative = cytotoxicity |
| --- | --- |
| COc1ccc(Nc2oc(/C=C/c3ccc(F)cc3)nc2C#N)cc1 | inactive: 1.63% |
| COc1ccccc1N1CCN(C(=O)CCSCc2ccccc2F)CC1 | inactive: -1.56% |
| Cc1oc(-c2ccccc2F)nc1Cn1c(SCc2ccccc2F)nc2ccncc21 | inactive: -17.2% |
| Cc1ccccc1OCc1nc2c3cnn(-c4ccccc4Br)c3ncn2n1 | inactive: 6.63% |
| COc1ccc(CNC(=O)c2cc3c(=O)n(Cc4cccs4)ccc3nc2C)cc1 | inactive: 0.626% |
| COc1ccc(-c2nc3ccccc3o2)cc1NC(=O)c1ccc(N2CCC(C)CC2)c([N+](=O)[O-])c1 | inactive: 0.734% |
| Cc1ccc2nc(N3CCN(C(=O)C4COc5ccccc5O4)CC3)sc2c1 (stereo not given) | inactive: -11.9% |
| Cc1ccnc(NS(=O)(=O)c2ccc(NC(=O)c3cc(=O)c4ccc(C)c(C)c4o3)cc2)n1 | inactive: 19.3% |
| Cc1ccc(C(=O)c2cn(Cc3ccc(F)cc3)c3nc(C)ccc3c2=O)cc1 | inactive: -0.569% |
| CCOC(=O)c1cc(-c2ccc(C)cc2)n(CC(=O)Nc2cccc(C(C)=O)c2)c1C | inactive: 14.3% |
| CCOC(=O)c1sc(NC(=O)c2nc(SCC)ncc2Cl)c(C(=O)OCC)c1C | inactive: -3.36% |
| CN(C)CCNC(=O)Cc1ccc(NC(=O)N2CCCCc3ccccc32)cc1 | inactive: 15.8% |
| CCCCn1c(CCNC(=O)c2ccc(F)cc2)nc2ccccc21 | inactive: -5.91% |
| COc1ccccc1CNc1nc(-c2ccco2)nn1C(=O)c1ccccc1[N+](=O)[O-] | inactive: 0.242% |
| COc1cccc(CNC(=O)Cn2cc3c(n2)-c2c(oc(C(=O)N4CCOCC4)c2C)CC3)c1 | inactive: -12.1% |
| COC(=O)c1ccccc1NC(=O)CSc1nc2sc3c(c2c(=O)[nH]1)CCCC3 | inactive: -0.406% |
| O=C(CN1C(=O)C2CCCCN2c2ccc(C(=O)N3CCCC3)cc21)NCc1ccccc1 (stereo not given) | inactive: 3.93% |
| COCCCNC(=O)Cn1c(=O)n(-c2cccc(C)c2)c(=O)c2c3c(sc21)CN(C(C)=O)CC3 | inactive: 13.1% |
| CCc1cccc(C)c1NC(=O)C1CCCN(S(=O)(=O)c2cccc3nsnc23)C1 (stereo not given) | inactive: 0.538% |
| CCN(C(=O)CSc1nnc(-c2ccc(Cl)cc2)o1)c1ccccc1 | inactive: -9.23% |
| CN(C)c1ccc(CNc2nc(-c3ccco3)nn2S(=O)(=O)c2ccc(Cl)cc2)cc1 | inactive: 16.7% |
| COc1ccc(-n2c(-c3ccc(F)cc3)cn3c4c(=O)n(C)c(=O)n(C)c4nc23)cc1 | inactive: 6.13% |
| CCOc1ccc2ncc3c(-c4ccccc4)nn(CC(=O)Nc4cccc(F)c4)c3c2c1 | inactive: 1.18% |
